# Reference: PubChem BioAssay AID1476 (National Center for Advancing Translational Sciences (NCATS), 2009)
# Screen size: about 200,000 compounds; about 4,500 (2.2%) were called active. This list was built around the results that the source calls inconclusive (neither active nor inactive); the mix of calls is not that of the screen. Calls follow the shape of the dose curve; as a rule, active = well fitted inhibition curve with a large enough effect; inconclusive = small, poorly fitted or top-dose-only effect, or effect the other way; inactive = flat fitted curve, though single readings scatter. A potency beside an inconclusive call is a rough fit, not a confirmed value.
# Target: Cruzipain (Trypanosoma cruzi) (UniProt P25779)
# Experiment: qHTS Assay for Promiscuous and Specific Inhibitors of Cruzain (without detergent); also: nearly all actives have a fitted effect of over 40% in size;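 as to max response, negative = inhibition: plate controls were enzyme without inhibitor for no effect and buffer without enzyme for full effect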
# Conditions: purified cruzain, Z-FR-AMC fluorescence, no detergent
# In short: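 Purified cruzain at 1.5 nM, pre-incubated 15 min with compound at room temperature in 100 mM sodium acetate pH 5.5, 5 mM DTT, 0.00005% Triton X-100. Reaction started with 2 uM Z-FR-AMC; AMC fluorescence increase over 60 s gives rate.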
# Potency is read from the fitted curve at half-maximal effect; tags tell the direction and shape of the fitted curve.
# UniProt P25779, sequence (P25779 whole entry, looked up): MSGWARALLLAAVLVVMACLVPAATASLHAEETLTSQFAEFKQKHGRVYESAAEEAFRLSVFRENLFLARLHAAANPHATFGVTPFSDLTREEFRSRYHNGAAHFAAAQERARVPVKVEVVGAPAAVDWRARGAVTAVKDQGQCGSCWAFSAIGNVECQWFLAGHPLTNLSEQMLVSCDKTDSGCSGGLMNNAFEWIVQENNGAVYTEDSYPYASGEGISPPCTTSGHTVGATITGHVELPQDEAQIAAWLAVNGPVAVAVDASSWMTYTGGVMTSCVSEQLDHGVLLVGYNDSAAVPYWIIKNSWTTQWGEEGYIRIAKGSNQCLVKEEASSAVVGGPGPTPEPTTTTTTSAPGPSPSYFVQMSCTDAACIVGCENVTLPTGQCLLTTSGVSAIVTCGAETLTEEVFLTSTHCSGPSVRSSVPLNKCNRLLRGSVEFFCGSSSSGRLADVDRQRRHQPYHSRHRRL
SMILES,Potency,"max response, negative = inhibition"
Cc1ccc(CN2C(=O)c3ccccc3Sc3ccc(C(=O)N4CCOCC4)cc32)cc1,"inconclusive: 39.8 µM [activator, single point]",–
Cc1cccc(C(=O)Nc2ccc(N3CC=C(c4ccccc4C)CC3)c(C(=O)O)c2)c1,–,inactive: -10.2%
CC1=C(C(=O)N2CCCCC2)C(c2ccc(Cl)cc2)n2c(nc3ccccc32)N1 (configuration not stated),–,inactive: -3.39%
Nc1ccc(C(=O)OCC(=O)N2c3ccccc3Sc3ccccc32)cc1[N+](=O)[O-],"inconclusive: 39.8 µM [inhibitor, single point]",–
CCCCN(CCCC)S(=O)(=O)c1ccc(NC(=O)Cc2cccs2)cc1,"inconclusive: 20 µM [inhibitor, partial curve, poor fit]",–
CC[C@H](C)N(C)C(=O)c1cc2ccccc2c(-c2ccccc2Cl)n1,"inconclusive: 39.8 µM [activator, single point]",–
CCN(CC)CCCCC1CCN(CC(=O)N2c3ccccc3C(=O)Nc3cccnc32)CC1,–,inactive: 4.69%
Nc1c(S(=O)(=O)O)cc(Nc2cccc(S(N)(=O)=O)c2)c2c1C(=O)c1ccccc1C2=O,–,inactive: 17.4%
S=C(Nc1ccccc1)Nc1nc2ccccc2n1CCOc1ccc(Br)cc1,active: 7.94 µM,–
COc1cc(NC(=O)CN2CCCN(Cc3cccc(F)c3)S2(=O)=O)cc(OC)c1,–,inactive: 15.7%
O=c1[nH]c(CN2CCN(c3ccccc3)CC2)nc2scc(-c3ccccc3)c12,"inconclusive: 39.8 µM [inhibitor, single point]",–
CO,–,inactive: -5.45%
O=C1N/C(=N\N=C\c2cccs2)SC1Cc1cccc(Cl)c1 (configuration not stated),"inconclusive: 31.6 µM [inhibitor, single point]",–
CCN(C(=O)CN1C(=O)COc2ccc(S(=O)(=O)N3CCOCC3)cc21)c1cccc(C)c1,–,inactive: -9.95%
O=C(c1cn(-c2ccccc2)nc1-c1cccnc1)N1CCCCC1,–,inactive: -0.942%
Cc1ccc(Cn2nnc3c(=O)[nH]c(C4CCN(S(=O)(=O)c5ccc(F)cc5)CC4)nc32)cc1,"inconclusive: 25.1 µM [activator, partial curve]",–
COCCNc1cc(C)nc2c3c(C)cc(C)nc3nn12,"inconclusive: 15.8 µM [activator, single point]",–
CSc1ccc(-c2nc3c(C)cccn3c2Nc2ccc3c(c2)OCCO3)cc1,"inconclusive: 39.8 µM [inhibitor, single point]",–
CN1CCN(c2ncc3ncc(=O)n(C[C@H]4CCCO4)c3n2)CC1,active: 20 µM,–
O=C1CN(C(=O)c2ccc(Br)o2)C(c2ccccc2)c2cc(Cl)ccc2N1 (configuration not stated),"inconclusive: 39.8 µM [inhibitor, single point]",–
CSc1nc(N)nc(SCC(=O)c2ccc(C)cc2)c1C#N,"inconclusive: 39.8 µM [inhibitor, single point]",–
COc1ccc(N2CCN(C(=O)CCC(=O)NNc3nc4ccccc4c4nc(C)nn34)CC2)cc1,"inconclusive: 39.8 µM [activator, single point]",–
CCOC(=O)c1sc(N(Cc2ccccc2)C(=O)CSc2nnc(C3CC3)n2N)nc1C,–,inactive: -8.81%

SMILES,Potency,"max response, negative = inhibition"
CCOC(=O)c1ccc(NC(=O)CC2C(=O)N(c3ccccc3)C(=O)N2CCCOC)cc1 (configuration not stated),"inconclusive: 20 µM [activator, single point]",–
CCC(=O)N1CCc2cc(S(=O)(=O)CCC(=O)N3CCN(c4cccc(Cl)c4)CC3)ccc21,"inconclusive: 39.8 µM [activator, single point]",–
O=C(NCc1ccc(F)cc1)C1CCCCN1S(=O)(=O)c1ccc(F)cc1 (configuration not stated),–,inactive: -2.9%
CCOC(=O)c1nn(-c2ccc(Cl)cc2)c2nc(-c3ccc(C)cc3)c(C#N)c(=O)n12,"inconclusive: 31.6 µM [inhibitor, single point]",–
CCOC(=O)c1oc2ccc3c(c2c1C)C(=O)CC1(CCN(C(=O)OCC)CC1)O3,"inconclusive: 31.6 µM [activator, single point]",–
N[C@H](Cc1ccccc1)c1nn[nH]n1,–,inactive: 5.41%
COc1ccc(OCCSCc2nnc(NC(=O)Nc3ccc(Cl)cc3)s2)cc1,active: 12.6 µM,–
Cc1cc(-c2ccccc2)n2nc(-c3cccc(Br)c3)cc2n1,"inconclusive: 15.8 µM [activator, partial curve]",–
CCN(CC)S(=O)(=O)c1ccc(N/N=C/c2ccc(O)cc2O)nc1,"inconclusive: 6.31 µM [activator, full curve, poor fit]",–
Cc1cccn2c(=O)c3cc(C(=O)NC(C)C)c(=N)n(Cc4ccncc4)c3nc12,"inconclusive: 10 µM [inhibitor, single point]",–
CCOC(=O)c1c(NC(=O)COC(=O)c2ccccn2)sc2c1CCC2,"inconclusive: 39.8 µM [activator, single point]",–
O=C1NN(c2ccc(Cl)c(Cl)c2)C(=O)/C1=C/c1cccc(OC(=O)c2cccs2)c1,–,inactive: 6.87%
CS(=O)(=O)N(CC(=O)NCCSCc1ccccc1)c1cc(C(F)(F)F)ccc1Cl,–,inactive: 14.4%
Cc1ccc(CNC(=O)CCCN2C(=O)CCn3nc(-c4cn(C)c5ccccc45)cc32)cc1,"inconclusive: 3.16 µM [activator, full curve, poor fit]",–
Cc1ccc(-n2c3c(c(=O)[nH]c2=S)C(C(F)(F)F)(C(F)(F)F)NC(=O)N3)cc1,–,inactive: 2.11%
CCOC(=O)c1ccc(-c2nnc(-c3ccc(Cl)cc3Cl)o2)cc1,"inconclusive: 39.8 µM [inhibitor, single point]",–
Oc1c(Br)cc(Br)cc1CN1CCN(Cc2ccccc2)CC1,–,inactive: 1.59%
Cc1nc2cnc(Oc3ccccc3)nc2n(C2CC2)c1=O,–,inactive: -15.5%
CC(C)c1nc2oc3c(NCC4CCCO4)ncnc3c2c2c1CCC2 (configuration not stated),"inconclusive: 25.1 µM [activator, single point]",–
CN1C(=O)CC(C(=O)Nc2ccc(F)cc2)SC1=Nc1ccc2c(c1)OCO2 (configuration not stated),"inconclusive: 31.6 µM [inhibitor, single point]",–
COc1ccc(-c2nc(CS(=O)(=O)CC(=O)NCCc3cc(OC)ccc3OC)c(C)o2)cc1,"inconclusive: 39.8 µM [activator, single point]",–
CCOc1ccc(CC2c3cc(OCC)c(OCC)cc3CCN2C(=O)c2cc(OC)c(OC)c(OC)c2)cc1OCC (configuration not stated),"inconclusive: 12.6 µM [activator, partial curve]",–
CCCOc1ccccc1NC(=O)CC1Nc2ccccc2NC1=O (configuration not stated),active: 12.6 µM,–

SMILES,Potency,"max response, negative = inhibition"
CCOC(=O)c1sc(NC(=O)c2ccc(S(=O)(=O)N3CCCCC3)cc2)nc1-c1ccccc1,"inconclusive: 39.8 µM [inhibitor, single point]",–
O=C(Nc1ccc(F)cc1F)c1ccc2c(c1)CCN2S(=O)(=O)c1ccc(Cl)cc1,"inconclusive: 25.1 µM [inhibitor, single point]",–
COC(=O)c1sccc1NC(=S)N1CCN(c2cc(C)ccc2C)CC1,"inconclusive: 39.8 µM [inhibitor, single point]",–
O=C(/C=C/c1ccc(Cl)cc1)N1CCN(c2c(Cl)cccc2[N+](=O)[O-])CC1,"inconclusive: 39.8 µM [inhibitor, single point]",–
CN1CCN(c2ncc3nc(-c4ccc(Cl)cc4)c(=O)n(C4CC4)c3n2)CC1,"inconclusive: 3.98 µM [activator, full curve]",–
COc1cc(NC(=O)c2cc3c(C)nc4ccccc4c3o2)cc(OC)c1OC,"inconclusive: 20 µM [activator, partial curve]",–
CN1CCN(C2=C(Cl)C(=O)C(c3cnc(N4CCCCC4)s3)=C(Cl)C2=O)CC1,"inconclusive: 15.8 µM [activator, partial curve]",–
CC(C)c1ccc(C2C3CSCC=C3C(C#N)=C(N)C2(C#N)C#N)cc1 (configuration not stated),"inconclusive: 25.1 µM [activator, single point]",–
NCCNS(=O)(=O)c1ccc(N)cc1,–,inactive: -6.94%
COc1ccc(NC(=O)C(Cc2ccccc2)NS(=O)(=O)c2ccc3c(c2)CCN3C(C)=O)cc1 (configuration not stated),–,inactive: -3.84%
O=C(/C=C/c1ccccc1)NC(=S)Nc1ccc2c3c(cccc13)CC2,active: 12.6 µM,–
COc1ccccc1-c1cc2nc(C)c(CCC(=O)NCCc3ccc(SC)cc3)c(C)n2n1,"inconclusive: 12.6 µM [activator, partial curve]",–
Cc1cc(C)c2nc(SCC(=O)Nc3ccc(S(=O)(=O)N4CCCC4)cc3)c(C)cc2c1,active: 12.6 µM,–
COC(=O)C(O)(c1c(C)[nH]n(-c2ccccc2)c1=O)C(F)(F)F (configuration not stated),–,inactive: -3.05%
O=C(Nc1nnc(SCc2ccc(Cl)cc2)s1)c1ccco1,"inconclusive: 39.8 µM [inhibitor, single point]",–
O=c1ccsn1Cc1ccccc1,active: 12.6 µM,–
CC(C)(C)Nc1oc(-c2ccccc2)nc1-c1cccc2ccccc12,–,inactive: -9.86%
Cc1nnc(SCC(=O)Nc2sc3c(c2C#N)CCCC3)[nH]c1=O,"inconclusive: 39.8 µM [inhibitor, single point]",–
Cc1c([N+](=O)[O-])cc(C(=O)Nc2ccc(Cc3ccncc3)cc2)cc1[N+](=O)[O-],"inconclusive: 31.6 µM [inhibitor, single point]",–
COc1ccccc1Nc1ncc(-c2cccs2)s1,"inconclusive: 25.1 µM [inhibitor, single point]",–
O=C(NCC1CCCO1)C(c1cccs1)N(Cc1cccs1)C(=O)Cn1nnc(-c2cccs2)n1 (configuration not stated),"inconclusive: 39.8 µM [activator, single point]",–
